# Source: ChEMBL document CHEMBL4888484, “Replenishing the malaria drug discovery pipeline: Screening and hit evaluation of the MMV Hit Generation Library 1 (HGL1) against asexual blood stage Plasmodium falciparum ,using a nano luciferase reporter read-out” (2022)
# The whole screen tested about 150,000 compounds, of which about 540 (0.36%) showed an effect of 50% or more. The list shows a part of the results.
# Test system: Plasmodium falciparum
# Test: Primary screen in NF54 nanoGlo assay, in single point, at 2uM, 72h; a lower Z score goes with more inhibition
# Assay type: functional, Erythrocyte
# Details: timepoint 72 hour
SMILES,% Inhibition [%],Z score
O=C(Cn1nnc2ccccc21)NC1CCCC1,-6,0.85
CCOc1ccc(Cn2c(CN3C(=O)c4ccccc4C3=O)nc3cccnc32)cc1,-4,0.68
N#Cc1ccsc1NC(=O)c1cccc(CN2CCS(=O)(=O)CC2)c1,-7,0.61
Cc1nc(C(=O)[C@H](C#N)C(=O)NC(C)C)cs1,7,-0.67
CO[C@H]1CCN(Cc2ccc(C3CCCCC3)s2)C1,-5,0.55
N#Cc1cccc([C@@H](C#CC2CCCCC2)N2CCN(CCO)CC2)c1,-5,0.8
COc1cccc(Cc2nc(-c3ccc(Oc4ccc(NC(C)=O)cc4)cc3)no2)c1,-17,1.95
CN(CCN(C)C1CC1)C(=O)c1scnc1C(F)(F)F,-4,0.45
Cc1nc(C)n(CCNC(=O)c2cnc(-c3cccnc3)nc2)n1,-10,0.95
Cc1ccn(CC(=O)N2CC[C@@]3(CCCN(CCCc4ccccc4)C3)C2)n1,-15,1.33
O=C(N[C@H]1CCOC[C@H]1C1CCOCC1)c1cccc(OC(F)F)c1,-3,0.41
CO[C@@]1(C)C[C@@H](O)C12CCN(c1ccc(Cl)c(C(=O)O)n1)CC2,-12,1.21
CCCC[C@H](CC)C(=O)Nc1ccc(OC)nc1,-7,1.24
O=C(CCCOc1ccccc1)Nc1nnn[nH]1,-4,0.64
Cc1noc2ncc(C(=O)N3CC(C)OC(C)C3)cc12 (stereo unspecified),-5,1.1
CC(C)C(=O)N(CCN1CCOCC1)Cc1cc(Cl)ccc1OCc1nc(CO)cs1,-7,1
Cc1ccc(CN(C[C@H](O)COCc2ccccc2)C2CC2)o1,-9,1.31
Cn1cc(-c2ccccc2)cc1C(=O)N1CCOCC1,7,-1.02
O=C(NCCc1cnn(-c2ccccc2)c1)c1cc2ncc(CCO)cn2n1,-11,1.92
OC[C@H]1CCCN(Cc2csc(-c3ccsc3)n2)[C@H]1CO,-14,2.42
Cc1cccc(NC(=O)N2CCN(c3ccc(NC(=O)CC(C)C)cc3C(=O)NCc3ccc(F)cc3)CC2)c1,-7,0.99
CCOc1ccc(N(C)S(=O)(=O)c2cc(-c3nc(-c4ccccc4)no3)sc2C)cc1,-1,0.09

SMILES,% Inhibition [%],Z score
Clc1ccc(-n2nnnc2C2(Nc3ccc4c(c3)OCCO4)CCCC2)cc1,0,0.03
CO[C@H]1CCN(c2cc(C(F)(F)F)ncn2)C1,-7,0.84
CCn1nc(CN2CCCN(C(=O)c3cnn(C)c3)CC2)c2c1CCOC2,-16,1.44
C[C@H](NCc1cc(C2CC2)ccc1F)c1ccc(F)cn1,-2,0.33
CN(C)C[C@H]1CN(C(=O)Nc2ccc(OC3CCC3)c(F)c2)CCO1,1,-0.16
O=C1C[C@H](C(=O)Nc2ccc3scnc3c2)C2(CCCC2)O1,-3,0.49
CCOC(=O)c1cc(C(F)(F)F)nc(C(F)(F)F)c1,7,-1.02
CC(=O)Nc1ccc(CN2CCC[C@H]2c2nc(-c3ccnc(NS(C)(=O)=O)c3)no2)cc1,14,-1.66
Cc1cc(Oc2ncccc2C#N)ccc1NC(=O)c1cc2ccc(F)cc2nc1C,-10,1.48
COc1cncc(C=CCCN2CCc3[nH]ncc3C2)c1,8,-1.46
COc1ccccc1C=CCN1CCS(=O)(=O)C(C)(C)C1,2,-0.13
Cc1ncc(CN(C)C(=O)Nc2cccnc2)s1,-9,0.84
CS(=O)(=O)NC1CCCC1CNc1ncc(F)cn1 (stereo unspecified),-21,2.65
O=C([C@@H]1Cc2cc(Cl)ccc2O1)N1CCN(c2ccccc2)CC1,-15,1.43
CN1CC[C@@]2(CCCN(C(=O)c3ccc4[nH]c(=O)n(C)c4c3)C2)C1,4,-0.59
CNC(=O)N1CCC([C@H]2CCN(S(=O)(=O)c3cccc(OC)c3)C2)CC1,-9,1.07
O=C(Cc1cccc2ccccc12)Nc1cc(-c2ccccn2)no1,-15,2.93
Cc1nc2cc(OCc3cc(C(=O)N[C@@H](C)c4cn(C)nc4C)no3)ccc2s1,8,-1.58
CS(=O)(=O)N1CCn2nc(CNC(=O)Cc3cccc(Cl)c3)cc2C1,0,0.01
CN(C)c1c(F)cc(NC(=O)NC2C3CCOC3C2(C)C)cc1F (stereo unspecified),7,-1.31
CCCCNC[C@H](O)Cn1c(=O)sc2ccccc21,-6,1.17
